# In PubChem BioAssay (NCATS):
# Where “and” joins values, the source holds several entries; their conditions need not be identical. Equal values may be shown once. Inconclusive results, whose numbers are uncertain, are shown with a selection of clear calls. For some assays here: Where the call is inconclusive, the potency comes from a doubtful curve fit. Calls of active or inactive are those of the source. Unless noted, calls follow the shape of the full dose curve.
# What was measured:
# [1] = Cell Viability - BJ (AID 421); details: BJ fibroblast viability, qHTS;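 also: potency is read from the fitted curve at half-maximal effect; cells exposed to compound for 40 hours at 37 °C before readout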
# Method in brief: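 Luminescent ATP signal (CellTiter-Glo, 20 min at room temperature) served as the read-out of viable BJ cells after 40 hours of compound treatment. Responses were scaled between DMSO and 100 uM tamoxifen, and AC50 values were obtained by Hill modeling.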
# [2] = Cell Viability - Jurkat (AID 426;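 active = dose-dependent loss of cell ATP signal giving a full or clear fitted curve, ranked by lower potency value; inconclusive = weak partial curve or response only at the top dose; inactive = no loss of viability signal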; also: potency is read from the fitted curve at half-maximal effect); details: qHTS
# Method in brief: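 Jurkat (clone E6-1, human T-cell leukemia) cells, 5000/well in complete medium, were exposed to compound for 40 hr at 37 °C. Viability was read as intracellular ATP by CellTiter-Glo luminescence; AC50 came from Hill fits of concentration-response data.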
# [3] = Cell Viability - Hek293 (AID 427;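 active = compounds whose dose-response curve shows a full or clear partial loss of cell viability, called from curve shape rather than a numeric limit; inconclusive = weak partial curves or an effect only at the top dose; inactive = no dose-dependent loss of viability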;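 also: potency is read from the fitted curve at half-maximal effect; cells exposed to compound for 40 hours at 37 °C before reading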); details: qHTS
# Method in brief: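 Luminescent ATP read-out (CellTiter-Glo, 20 min RT) after 40 hr compound exposure at 37 °C in complete medium. Signal normalized to DMSO (basal) and 100 uM tamoxifen (100% inhibition); concentration-response fitted with the standard Hill equation to give AC50.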
# [4] = Cell Viability - HepG2 (AID 433); details: qHTS;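 also: potency is read from the fitted curve at half-maximal effect; potency for ATP loss meaning cytotoxicity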
# Method in brief: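 Cytotoxicity is scored as loss of intracellular ATP in HepG2 cells exposed to compounds for 40 h. Concentration-response curves, normalized to DMSO and 100 uM tamoxifen, give AC50 values.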
# [5] = Cell Viability - MRC5 (AID 434); details: MRC5 lung fibroblast viability, qHTS;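 also: potency is read from the fitted curve at half-maximal effect; potency reflects cytotoxicity seen as loss of intracellular ATP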
# Method in brief: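 qHTS cytotoxicity in human lung fibroblast MRC5 cells; 40 hr treatment, 37 °C; cellular ATP by luciferase luminescence; DMSO = 0%, 100 uM tamoxifen = 100% inhibition; Hill-fit AC50.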
# [6] = Cell Viability - SK-N-SH (AID 435); details: SK-N-SH neuroblastoma cell viability qHTS;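 also: potency is read from the fitted curve at half-maximal effect; compound exposure lasted 40 h at 37 °C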
# Method in brief: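 Cells seeded at 1500 per well and incubated 5 hr at 37 °C. Compound added, then 40 hr at 37 °C. CellTiter-Glo added, 20 min at room temperature, luminescence read.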
# [7] = AP1 Signaling Pathway (AID 357; active = well fitted curve in either direction with a large enough effect, not every such curve was filed as active; inconclusive = small, poorly fitted or top-dose-only effect, or another doubt;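 also: ME-180 reporter cells stimulated with EGF at its EC50 level; top concentration of the series differs between compounds; % is scaled to controls: 0 for no effect and ±100 for the full control effect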); details: ME-180 AP-1-bla reporter, EGF-induced, beta-lactamase ratio, 5 h
# Method in brief: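 Cells are seeded overnight, exposed to compound titrations and an EC50 level of EGF for 5 hours at 37 °C, then loaded with CCF4 dye for 2.5 hours. Beta-lactamase activity under the AP-1 element is read as a blue/green ratio.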
# [8] = Stat Signaling Pathway (AID 446; active = well fitted curve in either direction with a large enough effect, not every such curve was filed as active; inconclusive = small, poorly fitted or top-dose-only effect, or another doubt;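 also: ME-180 cervical cancer cells given 40 pM IL-6 alongside compound; SIE-controlled beta-lactamase reporter measured as 460/530 nm FRET emission ratio; top concentration of the series differs between compounds; % is scaled to controls: 0 for no effect and ±100 for the full control effect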); details: ME-180 SIE beta-lactamase reporter, IL-6 stimulated, 5 h
# Method in brief: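 ME-180 SIE-bla cells; overnight plating; cpd + IL-6 40 pM, 5 h, 37 C; LiveBLAzer 2.5 h RT; 460/530 nm emission ratio. Normalized to 300 pM IL-6 and 125 nM JAK inhibitor controls.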
# Tags tell the direction and shape of the fitted curve.
compound,measurement,setting,value
CC(=O)[O][Hg][c]1ccccc1,Potency,[1],active: 5.56 µM
same,Potency,[2],active: 0.47 µM
Oc1c(Br)cc(Br)cc1Br,Potency,[2],inconclusive: 73 µM [single point]
CC(C)Nc1ccc(Nc2ccccc2)cc1,Potency,[1],inconclusive: 111 µM [single point]
same,Potency,[3],inconclusive: 55.8 µM [partial curve]
same,Potency,[4],inconclusive: 100 µM [single point]
same,Potency,[5],inconclusive: 59.6 µM [partial curve]
same,Potency,[6],active: 40.5 µM
CC[n+]1c(-c2ccccc2)c2cc(N)ccc2c2ccc(N)cc21,Potency,[1],inconclusive: 46.9 µM [partial curve]
same,Potency,[3],inconclusive: 71 µM [partial curve]
CN1C[C@H](C(=O)N[C@]2(C)O[C@@]3(O)[C@@H]4CCCN4C(=O)[C@H](Cc4ccccc4)N3C2=O)C=C2c3cccc4[nH]cc(c34)C[C@H]21,Potency,[2],active: 56.2 µM
Oc1cccc2cccnc12,"activity change, negative = inhibition",[7]; at 7.69 µM (top of the series),inconclusive: 41.8% [activator]
same,Potency,[2],inconclusive: 154 µM [partial curve] and inconclusive: 135 µM [partial curve]
same,Potency,[4],inconclusive: 118 µM [single point]
O=c1oc2ccccc2c(O)c1Cc1c(O)c2ccccc2oc1=O,"activity change, negative = inhibition",[7]; at 17.2 µM (top of the series),inconclusive: -74.3% [inhibitor]
same,"activity, negative = inhibition",[8]; at 17.2 µM (top of the series),inconclusive: -52% [inhibitor]
CC[C@@]1(O)C(=O)OCc2c1cc1n(c2=O)Cc2cc3ccccc3nc2-1,"activity change, negative = inhibition",[7]; at 17.2 µM (top of the series),active: -111%
same,"activity change, negative = inhibition",[7]; at 38 µM (top of the series),active: -97.5%
same,"activity, negative = inhibition",[8]; at 17.2 µM (top of the series),active: -95.6%
same,"activity, negative = inhibition",[8]; at 38 µM (top of the series),active: 42.7%
